Measurements reported in ChEMBL document CHEMBL5724801, “EUbOPEN Chemogenomics Library - Multiplex” (2024).

Key:
[1] = system: Fibroblast; assay: Multiplex assay against human fibroblast; assay type: toxicity, cell-based
Method in brief: (§1)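 Compound was added to live cells that had been stained at seeding with Hoechst33342, BioTracker Green Microtubule Cytoskeleton Dye, MitoTracker Red and Annexin V Alexa Fluor 680, and imaging followed on a CQ1 microscope at 37°C and 5% CO2. CellPathfinder machine-learning gating divided cells into Hoechst high-intensity objects or normal cells, normal cells into healthy, pyknosed or fragmented nuclei, and pyknosed cells into mitotic or apoptotic. Tubulin, mitochondrial-mass and membrane-permeability phenotypes are per cents of healthy-nucleus cells.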

[2] = system: U2OS; assay: Multiplex assay against U2OS; assay type: toxicity, cell-based; conditions: human; method in brief: as §1
[3] = 12 h, 10 µM, compound concentration 10 uM
[4] = 24 h, 1 µM, compound concentration 1 uM
[5] = 12 h, 1 µM, compound concentration 1 uM
[6] = 24 h, 10 µM, compound concentration 10 uM
[7] = 48 h, 1 µM, compound concentration 1 uM
[8] = 48 h, 10 µM, compound concentration 10 uM

## CC(=O)NCCc1c(Cc2ccccc2)[nH]c2ccccc12 [LUZINDOLE]
[1]; [3]
  Population Membrane Permeable-Phenotype (%): 2% and 13%
[1]; [4]
  Population Tubulin-Different-Phenotype (%): 13% and 50%
[2]; [5]
  Population Mitotic Cells (%): 27% and 0%

## O=C1COc2nccc(-c3ccccc3F)c2CN1Cc1cc(C(F)(F)F)cc(C(F)(F)F)c1
[2]; [3]
  Population Mitotic Cells (%): 29% and 0%
[2]; [6]
  Population Mitotic Cells (%): 41% and 0%

## CN1CCN2c3ccccc3Cc3ccccc3C2C1.Cl (stereo unspecified) [MIANSERIN HYDROCHLORIDE]
[1]; [5]
  Population Membrane Permeable-Phenotype (%): 1% and 12%
[1]; [6]
  Population Tubulin-Different-Phenotype (%): 11% and 53%
[2]; [6]
  Population Mitotic Cells (%): 30% and 6%

## C[C@H](N)COC(=O)[C@@H](CCCCN)NC(=O)Cc1c(-c2ccc3ccccc3c2)[nH]c2c1ccc1ccccc12
[2]; [3]
  Population Membrane Permeable-Phenotype (%): 5% and 17%

## Br.CS(=O)(=O)Nc1c(O)ccc2c1CCCC2C1=NCCN1 (stereo unspecified)
[1]; [5]
  Population Fragmented Nuclei (%): 9% and 32%
[1]; [3]
  Population Membrane Permeable-Phenotype (%): 1% and 12%
[2]; [3]
  Population Mitotic Cells (%): 30% and 0%
[2]; [4]
  Population Mitotic Cells (%): 23% and 7%

## Cc1sc2c(c1C)C(c1ccc(Cl)cc1)=N[C@H](CC(=O)OC(C)(C)C)c1nnc(C)n1-2
[1]; [4]
  Population Mitotic Cells (%): 17% and 53%
[2]; [3]
  Population Membrane Permeable-Phenotype (%): 42% and 13%
  Population Mitotic Cells (%): 48% and 10%
  Population Tubulin-Different-Phenotype (%): 39% and 11%
[2]; [7]
  Population Mitotic Cells (%): 22% and 3%

## O=C(NCCO)c1cccc(-c2cc(Nc3ccc(OC(F)(F)F)cc3)ncn2)c1
[1]; [7]
  Population Mitotic Cells (%): 17% and 54%
[2]; [3]
  Total Cell Count: 274 and 77
[2]; [6]
  Total Cell Count: 344 and 96
[2]; [8]
  Total Cell Count: 473 and 143

## N[C@@]1(C(=O)O)CO[C@H]2[C@H](C(=O)O)[C@H]21 [LY-379268]
[2]; [4]
  Population Membrane Permeable-Phenotype (%): 1% and 12%

## CCC(=O)OCC(=O)[C@@]1(OC(=O)CC)[C@@H](C)C[C@H]2[C@@H]3CCC4=CC(=O)C=C[C@]4(C)[C@@]3(Cl)[C@@H](O)C[C@@]21C [BECLOMETHASONE DIPROPIONATE]
[1]; [3]
  Population Fragmented Nuclei (%): 9% and 32%
  Population Membrane Permeable-Phenotype (%): 1% and 15%
[1]; [6]
  Population Membrane Permeable-Phenotype (%): 1% and 15%
[1]; [8]
  Population Mitochondria Different-Phenotype (%): 47% and 15%
[2]; [3]
  Population Fragmented Nuclei (%): 42% and 12%

## CCCC(CCC)C(=O)O [VALPROIC ACID]
[1]; [5]
  Population Mitochondria Different-Phenotype (%): 2% and 14%
[1]; [3]
  Population Pyknosed Nuclei (%): 9% and 30%
[1]; [6]
  Population Pyknosed Nuclei (%): 5% and 23%

## O=C1[C@H](Cc2ccc(O)cc2)N2C(=O)CCN(C(=O)NCc3ccccc3)[C@H]2CN1Cc1cccc2ccccc12
[1]; [6]
  Population Membrane Permeable-Phenotype (%): 1% and 13%
[2]; [7]
  Population Mitotic Cells (%): 18% and 4%

## Cc1cc(-c2ccc3c(c2)CC[C@H]3N2CC3(CCN(C(=O)Cc4cn5cc(C)sc5n4)CC3)C2)ncn1 [PF-5190457]
[1]; [5]
  Population Pyknosed Nuclei (%): 11% and 34%
[1]; [4]
  Population Apoptotic (%): 54% and 15%
  Population Pyknosed Nuclei (%): 7% and 32%
[1]; [7]
  Population Membrane Permeable-Phenotype (%): 2% and 14%
  Population Mitotic Cells (%): 21% and 65%

## CC(C)(C)c1ccc(CSc2cnn(C(C)(C)C)c(=O)c2Cl)cc1 [PYRIDABEN]
[1]; [7]
  Population Mitochondria Different-Phenotype (%): 4% and 15%

## CN(C)c1ccnc2sc3c(=O)n(N4CCCCCC4)cnc3c12
[1]; [3]
  Population Membrane Permeable-Phenotype (%): 1% and 12%
[1]; [8]
  Population Pyknosed Nuclei (%): 30% and 9%
[2]; [3]
  Population Mitotic Cells (%): 58% and 11%
[2]; [6]
  Population Mitotic Cells (%): 31% and 0%
[2]; [8]
  Population Tubulin-Different-Phenotype (%): 7% and 23%

## Cl.Clc1ccc2nsnc2c1NC1=NCCN1 [TIZANIDINE HYDROCHLORIDE]
[1]; [4]
  Population Fragmented Nuclei (%): 6% and 26%
  Population Tubulin-Different-Phenotype (%): 16% and 50%
[2]; [3]
  Population Tubulin-Different-Phenotype (%): 2% and 15%
[2]; [8]
  Population Mitotic Cells (%): 6% and 23%
  Total Cell Count: 459 and 149

## CC(C)(O)C(=O)N1CCN(c2ccc(C(F)(F)F)c(C3=C(c4c[nH]c5ccccc45)C(=O)NC3=O)c2)CC1
[1]; [3]
  Population Membrane Permeable-Phenotype (%): 1% and 15%
[2]; [3]
  Population Fragmented Nuclei (%): 37% and 6%

Some entries of the source have several records that differ or are many. The other results are left out here. The source may hold further records. The records of an entry repeat one measurement (runs, samples, wells, individuals or studies).
